According to PubChem BioAssay AID686978 (National Center for Advancing Translational Sciences (NCATS), 2013):
Where “and” joins values, the source holds several entries; their conditions need not be identical. Identical values can stand only once. The whole screen tested about 420,000 compounds, of which about 64,000 (15%) were called active. Inconclusive means that the source gave no clear call. Such entries were picked first, then a sample of the others. The call rests on the fitted dose curve; in most records, active means well fitted inhibition curve with a large enough effect; inconclusive means small, poorly fitted or top-dose-only effect; inactive means flat fitted curve, though single readings scatter. Potencies beside an inconclusive call are fits to weak or partial responses and may not hold up.

Test: qHTS for Inhibitors of human tyrosyl-DNA phosphodiesterase 1 (TDP1): qHTS in cells in absence of CPT; further: nearly all actives have a fitted effect of over 55% in size
Conditions: DT40 Tdp1-/- hTDP1 cells, no CPT, ATP luminescence, 48 h; activity change, negative = growth inhibition: at 46.2 µM (top of the series) unless noted
Summary of the method: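 DT40 Tdp1-/-;hTDP1 cells, no CPT (DMSO vehicle only), 400 cells/well; compounds pin-transferred; ≥48 hr, 37 °C; CellTiter-Glo 30 min RT dark, luminescence read.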
On the % scale 0 is the no-effect control and ±100 the full control effect; potency means the concentration at half of the fitted maximal effect; tags describe the fitted curve by direction and shape.

Row | Structure (SMILES) | Potency | activity change, negative = growth inhibition
1 | COc1ccc(N2CCCn3c2nc2c3c(=O)n(Cc3ccc(F)cc3)c(=O)n2C)c(OC)c1 | inconclusive: 16.4 µM [inhibitor, single point] | –
2 | Cc1ccnc(N2CCCC(C(=O)Nc3ccc(C)c(C)c3)C2)n1 (stereo not drawn) | inconclusive: 23.1 µM [inhibitor, partial curve] | –
3 | Cc1cc(C)c(C#N)c(SCC(=O)c2ccccc2)n1 | – | inactive: -46%
4 | COc1ccc(C2NC(c3ccc(OC)cc3)C([N+](=O)[O-])C(C)(C)C2[N+](=O)[O-])cc1 (stereo not drawn) | – | inactive: -22.7%
5 | COc1ccc(OC)c(C(=O)NC(CC(N)=O)c2ccc(NCCN3CCCCC3)c([N+](=O)[O-])c2)c1 (stereo not drawn) | inconclusive: 32.6 µM [inhibitor, single point] | –
6 | CCCCC#Cc1cncc(C(=O)N/N=C/c2ccccc2)c1 | – | inactive: -14.3%
7 | CC(C)(C)c1ccc(NC(=O)c2cc[n+]([O-])cc2)cc1 | inconclusive: 7.31 µM [inhibitor, partial curve] | –
8 | CN1C[C@@H](CO)O[C@@H](n2cnc3c(N4CCOCC4)ncnc32)C1 | – | inactive: -3.01%
9 | O=C(C[C@H]1C=C[C@H](NC(=O)c2ccccn2)[C@@H](CO)O1)NCc1cc(F)cc(F)c1 | – | inactive: -10.4%
10 | CN(c1ccccc1)S(=O)(=O)c1cccc(NC(=O)CCNC(=O)c2ccccc2)c1 | active: 16.4 µM | –
11 | CCOC(=O)c1c(C)[nH]c(CCC(=O)NCCCN2CCN(c3cc(C)ccc3C)CC2)c1C | active: 4.61 µM | –
12 | COc1cc(C2Nc3ccccc3C(=O)N2NS(C)(=O)=O)c([N+](=O)[O-])cc1OC (stereo not drawn) | – | inactive: -2.3%
13 | CCCn1c(NC(=O)C2CCN(S(=O)(=O)c3cccs3)CC2)nc2ccccc21 | active: 16.4 µM | –
14 | N#C/C(=C\c1cccn1S(=O)(=O)c1ccccc1)S(=O)(=O)c1ccc(F)cc1 | – | inactive: -20%
15 | CCCN1CCN(CCCNC(=O)c2ccc3c(=O)n(CCc4ccccc4)c(=O)[nH]c3c2)CC1 | inconclusive: 23.1 µM [inhibitor, single point] | –
16 | Cc1cc(NC(=O)CSc2nc(Cc3ccccc3)c(C)[nH]2)no1 | inconclusive: 16.4 µM [inhibitor, single point] | –
17 | COc1ccccc1NC(=O)NCCCN1CCN(c2cccc(Cl)c2)CC1 | inconclusive: 29.1 µM [inhibitor, single point] | –
18 | COc1ccccc1OCC(=O)Nc1ccccc1C(=O)NCc1cccnc1 | – | inactive: -27.2%
19 | C(=Cc1cccnc1)c1ccncc1 | inconclusive: 25.9 µM [inhibitor, partial curve] | –
20 | O=C(CCNS(=O)(=O)c1ccc2c(c1)CCN2C(=O)C1CC1)N1CCN(c2ccccc2F)CC1 | active: 11.6 µM | –
21 | Cc1c(C(=O)N2CCC[C@H]2C(N)=O)oc2c(F)cccc12 | – | inactive: 17.3%
22 | CCCCCCCCCCCCCCCC(C)C1=NCCN1 (stereo not drawn) | – | inactive: 0.886%
23 | CCN(C(=O)c1cnc(OC)cc1C(F)(F)F)c1ccc(Cl)cc1 | inconclusive: 25.9 µM [inhibitor, single point] | –
24 | O=C1C=C(NC2=CC3OC(c4ccccc4)OCC3OC2=O)CCC1 (stereo not drawn) | active: 9.2 µM | –

Row | Structure (SMILES) | Potency | activity change, negative = growth inhibition
25 | O=C(NCCSc1ccccn1)c1ccc(Cl)cc1 | – | inactive: -4.91%
26 | C/C(Cn1nc([N+](=O)[O-])cc1C)=N\NC(=O)c1cccc(Br)c1 | – | inactive: -10.6%
27 | COC(=O)C1=C(C)N(c2ccc(C)cc2)/C(=C/c2cccs2)C1=O | active: 25.9 µM | –
28 | COC(=O)c1ccccc1NC(=O)N[C@@H](C)C(=O)OC | – | inactive: -5.34%
29 | CCn1nc(-c2ccccc2)c(-c2ccccc2)c(C(=O)Nc2nc(C)c(C(=O)N(C)C)s2)c1=O | inconclusive: 18.4 µM [inhibitor, single point] | –
30 | Cc1ccc(C)c(NC(=O)CSc2ncc3c(n2)-c2ccc(Cl)cc2N(C)S3(=O)=O)c1 | active: 18.4 µM | –
31 | O=C(CSc1ccccc1)N1CCN(c2ccc(F)cc2)CC1 | – | inconclusive: -33.2% [inhibitor]
32 | CCCn1c(CCC(=O)Nc2cc(Cl)c(OC)cc2OC)nc2cccnc21 | active: 16.4 µM | –
33 | COc1ccc(C2CC(c3cccs3)=NN2C(=O)c2ccccc2)cc1OC (stereo not drawn) | – | inactive: -22.4%
34 | Cc1onc(-c2c(F)cccc2Cl)c1C(=O)Nc1sc2c(c1C#N)CCC(C(C)(C)C)C2 (stereo not drawn) | active: 16.4 µM | –
35 | O=c1[nH]c(/C=C/c2ccc(OC(F)F)cc2)nc2c1cnn2-c1ccccc1 | inconclusive: 6.51 µM [inhibitor, single point] | –
36 | O=C(CCSCc1ccccc1Cl)N1CCN(c2cccc(Cl)c2)CC1 | inconclusive: 16.4 µM [inhibitor, single point] and inconclusive: 29.1 µM [inhibitor, single point] | –
37 | CC(=O)OC(COc1ccccc1)Cn1cnc2cc(C)c(C)cc21 (stereo not drawn) | inactive and inconclusive: 25.9 µM [inhibitor, single point] | –
38 | CCOc1ccc(CNC(=O)c2cnc3sc(N(CC)CC)nn3c2=O)cc1OC | inconclusive: 29.1 µM [inhibitor, single point] | –
39 | O=C(c1cc(-c2ccccc2)nc2ccccc12)N1CCCC1 | – | inactive: -21.6%
40 | CCOC(=O)c1sc(NC(=O)c2cc3c(s2)CCC(C)C3)nc1C (stereo not drawn) | – | inconclusive: -31.1% [inhibitor]
41 | Cc1c(C(=O)Nc2ccc(N3CCOCC3)cc2)oc2ccccc12 | inconclusive: 25.9 µM [inhibitor, single point] | –
42 | O=C(Cn1c(=O)n(-c2ccccc2Cl)c(=O)c2sc3ccccc3c21)N1CCCC1 | inconclusive: 20.6 µM [inhibitor, partial curve] | –
43 | COc1ccccc1N=CC1=C(O)CC(c2ccccc2)CC1=O (stereo not drawn) | active: 9.2 µM | –
44 | Cc1cc(SCC(=O)OCC(=O)N(CCC#N)c2ccccc2)nc2ccccc12 | – | inactive: -22.9%
45 | O=C(NC(c1ccc(Cl)cc1)c1cnccn1)C1CCN(Cc2ccc(Oc3ccccc3)cc2)CC1 (stereo not drawn) | active: 16.4 µM | –
46 | O=C(CSc1nc2ccccc2s1)N/N=C/c1cc([N+](=O)[O-])ccc1O | inconclusive: 18.4 µM [inhibitor, single point] | –
47 | C=CCn1c(-c2ccc3[nH]c(C)c(C)c3c2)n[nH]c1=S | – | inconclusive: -32.3% [inhibitor]
48 | c1ccc2sc(SCSc3nc4ccccc4s3)nc2c1 | inconclusive: 20.6 µM [inhibitor, single point] | –
